Experimental data reported in PMC8284461, “Piperidine-4-Carboxamides Target DNA Gyrase in Mycobacterium abscessus” (Antimicrobial Agents and Chemotherapy, 2021).

Test system: recA promoter-LuxCDABE in wild-type M. abscessus subsp. abscessus ATCC 19977
Assay: recA DNA damage reporter assay
Settings: wild-type background, 4 h, luminescence

## COc1c(N2C[C@@H]3CCCN[C@@H]3C2)c(F)cc2c(=O)c(C(=O)O)cn(C3CC3)c12 [MXF, moxifloxacin]
  recA promoter-dependent reporter expression: strongly induced

## CCNC(=O)Nc1nc2cc(-c3cnc(C(C)(C)O)nc3)c(F)c([C@H]3CCCO3)c2[nH]1 [SPR719]
  recA promoter-dependent reporter expression: only a weak increase

## CC[C@H]1OC(=O)[C@H](C)[C@@H](O[C@H]2C[C@@](C)(OC)[C@@H](O)[C@H](C)O2)[C@H](C)[C@@H](O[C@@H]2O[C@H](C)C[C@H](N(C)C)[C@H]2O)[C@](C)(OC)C[C@@H](C)C(=O)[C@H](C)[C@@H](O)[C@]1(C)O [CLR, clarithromycin]
  recA promoter-dependent reporter expression: did not cause any increase
